Reference: patent US20220041702A1 (Innovent, published 2022)

Columns and labels:
[1] = target: T1, GITR expressed on cell surface (CHO cells overexpressing GITR) (Homo sapiens (Human), UniProt Q9Y5U5 26-241); assay: FACS on CHO cells overexpressing GITR
T1 construct: also called GITR on cell surface
T1 sequence: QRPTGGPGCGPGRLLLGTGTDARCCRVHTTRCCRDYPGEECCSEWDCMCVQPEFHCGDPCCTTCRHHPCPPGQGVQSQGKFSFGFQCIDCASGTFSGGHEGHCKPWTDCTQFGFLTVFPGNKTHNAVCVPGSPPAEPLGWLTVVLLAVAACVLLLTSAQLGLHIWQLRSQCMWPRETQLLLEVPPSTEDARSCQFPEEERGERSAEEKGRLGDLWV

human GITR-His = target: T2, human GITR-His (human, UniProt Q9Y5U5 26-161); assay: ForteBio Octet BLI, antibody on AHC tip, human GITR-His 50 nM in solution, monovalent
T2 construct: Bought soluble protein; also called GIR-H5228-1MG
T2 sequence (looked up): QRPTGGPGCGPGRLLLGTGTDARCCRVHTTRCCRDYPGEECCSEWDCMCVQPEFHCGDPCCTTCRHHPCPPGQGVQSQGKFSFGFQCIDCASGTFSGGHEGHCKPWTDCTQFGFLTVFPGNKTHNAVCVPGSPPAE
Description: A ForteBio affinity assay was performed according to the method reported in the literature (Estep, P, et al., High throughput solution Based measurement of antibody-antigen affinity and epitope binning MAbs, 2013, 5(2): p. 270-278). Briefly, the AHC sensor (Pall, Catalog No.: 1506091) was immersed in a SD buffer (PBS 1×, BSA 0.1%, Tween 20 0.05%) and equilibrated at room temperature, half an hour before the experiment. […] The anti-human IgG Fc biosensor AHC was immersed in each well containing the antibody solution, and immersed at room temperature for 600 s to load the samples. The sensor was then washed in the SD buffer until it returned to the baseline, and then immersed in a well containing 100 μL of the antigen solution to monitor the binding of the antibody to the antigen. The sensor was then transferred to a well containing 100 μL of the SD buffer to monitor the antibody dissociation. The rotation speed was 400 rpm and the temperature was 30° C. The background-corrected association and dissociation curves were fitted by the Octet analysis software (ForteBio) to generate the binding rate constant (kₒₙ) and dissociation rate constant (kdis), which are then used to calculate the equilibrium dissociation constant (KD).

B1: hcIgG-10 (Fc fusion)
chain: QVQLQESGGGLVQPGGSLRLSCAASGFAFGSSHMSWVRRAPGKGLEWVSTIHSGGGFGDYANSVQGRFTISRDVAKNTLYLQMNSLKPEDTAIYYCALATDWRKPPGQGTQVTVSS[… human IgG1 Fc …]
notes: VHH-Fc heavy-chain-only antibody; also called parent monospecific antibody against GITR; parent antibody hcIgG-10
EC50 [1]: 0.606 nM | Kd (human GITR-His): 2.57 nM | koff (human GITR-His): 0.000602 s⁻¹ | kon (human GITR-His): 234000 M⁻¹ s⁻¹
